# Measured values reported in the supplement of paper PMC8728848.
# The other results are listed elsewhere or left out.
# B1: Surfactant Protein D (Human); Neck + Carbohydrate Recognition Domain (NCRD) (Homo sapiens) (protein)
# chain: MLLFLLSALVLLTQPLGYLEAEMKTYSHRTMPSACTLVMCSSVESGLPGRDRDGREGPRGEKGDPGLPGAAGQAGMPGQAGPVGPKGDNGSVGEPGPKGDTGPSGPPGPPGVPGPAGREGALGKQGNIGPQGKPGPKGEAGPKGEVGAPGMQGSAGARGLAGPKGERGVPGERGVPGNTGAAGSAGAMGPQGSPGARGPPGLKGDKGIPGDKGAKGESGLPDVASLRQQVEALQGQVQHLQAAFSQYKKVELFPNGQSVGEKIFKTAQFVKPFTEAQLLCTQAGGQLASPRSAAENAALQQLVVAKNEAAFLSMTDSKTEGKFTYPTGESLVYSNWAPGEPNDDGGSEDCVEIFTNGKWNDRACGEARLVVCEF
# Tests used:
# Assay in all cases: glycan array binding signal (z-score within array); higher = stronger binding
# Settings in all cases: glycan notation: IUPAC condensed, linker removed; mutation: K348A
# GalNAc(b1-3)GalNAc = target: GalNAc(b1-3)GalNAc
# Procedure, shortened: (§1)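 The binding signal is a Z-score computed within each array and averaged over linkers. Arrays of the same protein sequence at different concentrations or buffers were also averaged together. Data originate from 3228 arrays in the Consortium for Functional Glycomics database, kept only where the protein sequence was available.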
# GalNAc(b1-4)GlcNAc = target: GalNAc(b1-4)GlcNAc
# Procedure, shortened: as §1
# Glc(a1-4)Glc = target: Glc(a1-4)Glc
# Procedure, shortened: as §1
# Glc(a1-6)Glc(a1-6)Glc = target: Glc(a1-6)Glc(a1-6)Glc
# Procedure, shortened: as §1
# Glc(b1-4)Glc = target: Glc(b1-4)Glc
# Procedure, shortened: as §1
# Glc(b1-6)Glc = target: Glc(b1-6)Glc
# Procedure, shortened: as §1
# GlcA(b1-3)Gal = target: GlcA(b1-3)Gal
# Procedure, shortened: as §1
# GlcA(b1-3)GlcNAc = target: GlcA(b1-3)GlcNAc
# Procedure, shortened: as §1
# GlcA(b1-6)Gal = target: GlcA(b1-6)Gal
# Procedure, shortened: as §1
# [1] = target: GlcNAc(a1-3)Gal(b1-4)GlcNAc
# Procedure, shortened: as §1
# [2] = target: GlcNAc(a1-6)Gal(b1-4)GlcNAc
# Procedure, shortened: as §1
# [3] = target: GlcNAc(b1-2)Gal(b1-3)GalNAc
# Procedure, shortened: as §1
# [4] = target: GlcNAc(b1-2)Man(a1-3)[GlcNAc(b1-2)Man(a1-6)]Man(b1-4)GlcNAc(b1-4)GlcNAc
# Procedure, shortened: as §1
# GlcNAc(b1-3)Gal = target: GlcNAc(b1-3)Gal
# Procedure, shortened: as §1
# [5] = target: GlcNAc(b1-3)Gal(b1-3)GalNAc
# Procedure, shortened: as §1
# GlcNAc(b1-3)Gal(b1-4)Glc = target: GlcNAc(b1-3)Gal(b1-4)Glc
# Procedure, shortened: as §1
# [6] = target: GlcNAc(b1-3)Gal(b1-4)GlcNAc
# Procedure, shortened: as §1
# [7] = target: GlcNAc(b1-3)Gal(b1-4)GlcNAc(b1-3)Gal(b1-4)GlcNAc
# Procedure, shortened: as §1
# GlcNAc(b1-3)GalNAc = target: GlcNAc(b1-3)GalNAc
# Procedure, shortened: as §1
# GlcNAc(b1-3)Man = target: GlcNAc(b1-3)Man
# Procedure, shortened: as §1
# [8] = target: GlcNAc(b1-3)[GlcNAc(b1-4)][GlcNAc(b1-6)]GlcNAc
# Procedure, shortened: as §1
# [9] = target: GlcNAc(b1-3)[GlcNAc(b1-6)]Gal(b1-4)GlcNAc
# Procedure, shortened: as §1
# [10] = target: GlcNAc(b1-3)[GlcNAc(b1-6)]GalNAc
# Procedure, shortened: as §1
# [11] = target: GlcNAc(b1-4)Gal(b1-4)GlcNAc
# Procedure, shortened: as §1
# GlcNAc(b1-4)GlcNAc = target: GlcNAc(b1-4)GlcNAc
# Procedure, shortened: as §1
# [12] = target: GlcNAc(b1-4)GlcNAc(b1-4)GlcNAc
# Procedure, shortened: as §1
# [13] = target: GlcNAc(b1-4)GlcNAc(b1-4)GlcNAc(b1-4)GlcNAc(b1-4)GlcNAc
# Procedure, shortened: as §1
# [14] = target: GlcNAc(b1-4)GlcNAc(b1-4)GlcNAc(b1-4)GlcNAc(b1-4)GlcNAc(b1-4)GlcNAc
# Procedure, shortened: as §1
# [15] = target: GlcNAc(b1-4)[GlcNAc(b1-6)]GalNAc
# Procedure, shortened: as §1
# [16] = target: GlcNAc(b1-6)Gal(b1-4)GlcNAc
# Procedure, shortened: as §1
# GlcNAc(b1-6)GalNAc = target: GlcNAc(b1-6)GalNAc
# Procedure, shortened: as §1
# GlcNAc3Prop(b1-4)GlcNAc = target: GlcNAc3Prop(b1-4)GlcNAc
# Procedure, shortened: as §1
# Kdn(a2-3)Gal(b1-3)GlcNAc = target: Kdn(a2-3)Gal(b1-3)GlcNAc
# Procedure, shortened: as §1
# Kdn(a2-3)Gal(b1-4)GlcNAc = target: Kdn(a2-3)Gal(b1-4)GlcNAc
# Procedure, shortened: as §1
# [17] = target: Man(a1-2)Man(a1-2)Man(a1-3)Man
# Procedure, shortened: as §1
# [18] = target: Man(a1-2)Man(a1-2)Man(a1-6)[Man(a1-3)]Man
# Procedure, shortened: as §1
# Man(a1-2)Man(a1-3)Man = target: Man(a1-2)Man(a1-3)Man
# Procedure, shortened: as §1
# [19] = target: Man(a1-2)Man(a1-3)[Man(a1-2)Man(a1-6)]Man
# Procedure, shortened: as §1
# [20] = target: Man(a1-2)Man(a1-3)[Man(a1-2)Man(a1-6)]Man(a1-6)[Man(a1-2)Man(a1-2)Man(a1-3)]Man
# Procedure, shortened: as §1
# [21] = target: Man(a1-2)Man(a1-3)[Man(a1-2)Man(a1-6)]Man(a1-6)[Man(a1-2)Man(a1-2)Man(a1-3)]Man(b1-4)GlcNAc(b1-4)GlcNAc
# Procedure, shortened: as §1
# [22] = target: Man(a1-2)Man(a1-3)[Man(a1-6)]Man(a1-6)[Man(a1-2)Man(a1-3)]Man(b1-4)GlcNAc(b1-4)GlcNAc
# Procedure, shortened: as §1
# [23] = target: Man(a1-2)Man(a1-6)[Man(a1-3)]Man(a1-6)[Man(a1-2)Man(a1-2)Man(a1-3)]Man
# Procedure, shortened: as §1
# [24] = target: Man(a1-2)Man(a1-6)[Man(a1-3)]Man(a1-6)[Man(a1-2)Man(a1-2)Man(a1-3)]Man(b1-4)GlcNAc(b1-4)GlcNAc
# Procedure, shortened: as §1
# Man(a1-3)[Man(a1-6)]Man = target: Man(a1-3)[Man(a1-6)]Man
# Procedure, shortened: as §1
# [25] = target: Man(a1-3)[Man(a1-6)]Man(a1-6)[Man(a1-2)Man(a1-3)]Man(b1-4)GlcNAc(b1-4)GlcNAc
# Procedure, shortened: as §1
# [26] = target: Man(a1-3)[Man(a1-6)]Man(a1-6)[Man(a1-3)]Man
# Procedure, shortened: as §1
# [27] = target: Man(a1-3)[Man(a1-6)]Man(a1-6)[Man(a1-3)]Man(b1-4)GlcNAc(b1-4)GlcNAc
# Procedure, shortened: as §1
# [28] = target: Man(a1-3)[Man(a1-6)]Man(b1-4)GlcNAc(b1-4)GlcNAc
# Procedure, shortened: as §1
# Man(a1-6)Man = target: Man(a1-6)Man
# Procedure, shortened: as §1
# Man(b1-4)GlcNAc = target: Man(b1-4)GlcNAc
# Procedure, shortened: as §1
# Neu5Ac(a2-3)Gal = target: Neu5Ac(a2-3)Gal
# Procedure, shortened: as §1
# [29] = target: Neu5Ac(a2-3)Gal(b1-3)GalNAc
# Procedure, shortened: as §1
# [30] = target: Neu5Ac(a2-3)Gal(b1-3)GalNAc(b1-3)Gal(a1-4)Gal(b1-4)Glc
# Procedure, shortened: as §1
# [31] = target: Neu5Ac(a2-3)Gal(b1-3)GalNAc(b1-3)Gal(b1-4)GlcNAc
# Procedure, shortened: as §1
# [32] = target: Neu5Ac(a2-3)Gal(b1-3)GalNAc(b1-4)[Neu5Ac(a2-3)]Gal(b1-4)Glc
# Procedure, shortened: as §1
# [33] = target: Neu5Ac(a2-3)Gal(b1-3)GalNAc6S
# Procedure, shortened: as §1
# [34] = target: Neu5Ac(a2-3)Gal(b1-3)GlcNAc
# Procedure, shortened: as §1
# [35] = target: Neu5Ac(a2-3)Gal(b1-3)GlcNAc(b1-3)Gal(b1-3)GlcNAc
# Procedure, shortened: as §1
# [36] = target: Neu5Ac(a2-3)Gal(b1-3)GlcNAc6S
# Procedure, shortened: as §1
binder,measurement,setting,value
B1,glycan array binding signal (z-score),GalNAc(b1-3)GalNAc,-0.172
same,glycan array binding signal (z-score),GalNAc(b1-4)GlcNAc,-0.165
same,glycan array binding signal (z-score),Glc(a1-4)Glc,-0.171
same,glycan array binding signal (z-score),Glc(a1-6)Glc(a1-6)Glc,-0.172
same,glycan array binding signal (z-score),Glc(b1-4)Glc,-0.16
same,glycan array binding signal (z-score),Glc(b1-6)Glc,-0.169
same,glycan array binding signal (z-score),GlcA(b1-3)Gal,-0.174
same,glycan array binding signal (z-score),GlcA(b1-3)GlcNAc,-0.16
same,glycan array binding signal (z-score),GlcA(b1-6)Gal,-0.094
same,glycan array binding signal (z-score),[1],-0.161
same,glycan array binding signal (z-score),[2],-0.175
same,glycan array binding signal (z-score),[3],-0.166
same,glycan array binding signal (z-score),[4],-0.134
same,glycan array binding signal (z-score),GlcNAc(b1-3)Gal,-0.158
same,glycan array binding signal (z-score),[5],-0.172
same,glycan array binding signal (z-score),GlcNAc(b1-3)Gal(b1-4)Glc,-0.178
same,glycan array binding signal (z-score),[6],-0.165
same,glycan array binding signal (z-score),[7],-0.175
same,glycan array binding signal (z-score),GlcNAc(b1-3)GalNAc,-0.179
same,glycan array binding signal (z-score),GlcNAc(b1-3)Man,-0.18
same,glycan array binding signal (z-score),[8],-0.167
same,glycan array binding signal (z-score),[9],-0.177
same,glycan array binding signal (z-score),[10],-0.173
same,glycan array binding signal (z-score),[11],-0.163
same,glycan array binding signal (z-score),GlcNAc(b1-4)GlcNAc,-0.146
same,glycan array binding signal (z-score),[12],-0.125
same,glycan array binding signal (z-score),[13],-0.173
same,glycan array binding signal (z-score),[14],-0.169
same,glycan array binding signal (z-score),[15],-0.164
same,glycan array binding signal (z-score),[16],-0.175
same,glycan array binding signal (z-score),GlcNAc(b1-6)GalNAc,-0.177
same,glycan array binding signal (z-score),GlcNAc3Prop(b1-4)GlcNAc,-0.144
same,glycan array binding signal (z-score),Kdn(a2-3)Gal(b1-3)GlcNAc,-0.157
same,glycan array binding signal (z-score),Kdn(a2-3)Gal(b1-4)GlcNAc,-0.156
same,glycan array binding signal (z-score),[17],2.46
same,glycan array binding signal (z-score),[18],8.57
same,glycan array binding signal (z-score),Man(a1-2)Man(a1-3)Man,1.49
same,glycan array binding signal (z-score),[19],7.38
same,glycan array binding signal (z-score),[20],8.69
same,glycan array binding signal (z-score),[21],-0.073
same,glycan array binding signal (z-score),[22],1.29
same,glycan array binding signal (z-score),[23],1.2
same,glycan array binding signal (z-score),[24],1.61
same,glycan array binding signal (z-score),Man(a1-3)[Man(a1-6)]Man,-0.179
same,glycan array binding signal (z-score),[25],6.04
same,glycan array binding signal (z-score),[26],6.52
same,glycan array binding signal (z-score),[27],0.736
same,glycan array binding signal (z-score),[28],-0.116
same,glycan array binding signal (z-score),Man(a1-6)Man,-0.153
same,glycan array binding signal (z-score),Man(b1-4)GlcNAc,-0.178
same,glycan array binding signal (z-score),Neu5Ac(a2-3)Gal,-0.173
same,glycan array binding signal (z-score),[29],-0.033
same,glycan array binding signal (z-score),[30],-0.169
same,glycan array binding signal (z-score),[31],-0.168
same,glycan array binding signal (z-score),[32],-0.156
same,glycan array binding signal (z-score),[33],-0.163
same,glycan array binding signal (z-score),[34],-0.134
same,glycan array binding signal (z-score),[35],-0.165
same,glycan array binding signal (z-score),[36],-0.17
